In all, about 44,000 compounds went through this assay and about 340 (0.77%) were called active. Roughly 5% stayed inconclusive and do not appear here. The call rests on the fitted dose curve; in most records, active means well fitted inhibition curve with a large enough effect; inconclusive means small, poorly fitted or top-dose-only effect; inactive means flat fitted curve, though single readings scatter. The list shows a part of the results.
Assay: Acumen qHTS Assay for Inhibitors of the mTORC1 Signaling Pathway in MEF (Tsc2-/-, p53-/-) Cells: Sytravon; further: nearly all actives have a fitted effect of over 50% in size;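 on activity change, negative = inhibition: plate controls were DMSO for no effect and rapamycin for full effect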
Conditions: phospho-rpS6 immunofluorescence/PI, 24 h; series mostly up to 38.3 µM; activity change, negative = inhibition: at the top concentration
How it was run: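 Tsc2-/-, p53-/- mouse embryonic fibroblasts (empty-vector line) exposed to compound 24 hrs at 37 C, fixed, immunostained for phospho-rpS6 and counterstained with propidium iodide. Acumen laser scanning gives % positive cells from Alexa 488/PI ratio, thresholded using 7.5 nM rapamycin; PI count gives viability.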
Potency means the concentration at half of the fitted maximal effect.

Q: For `COc1ccccc1-c1nc(S(=O)(=O)c2ccccc2)c(N2CCC(C)CC2)o1`, which “activity change, negative = inhibition” value is on record?
A: The value was inactive: -4.24%.

Q: With `Cc1ccc(-c2cc3c(n2-c2ccc(F)cc2)CC(C)(C)CC3=O)cc1` as the molecule, how does the “activity change, negative = inhibition” value read?
A: Its value is inactive: -12.6%.

Q: For `COc1ccccc1CCNC(=O)C(=O)NCC(c1ccco1)S(=O)(=O)c1ccccc1` (stereo not drawn), which “activity change, negative = inhibition” value is on record?
A: Its value is inactive: -1.63%.

Q: With `Cc1cccc(NC(=O)CSc2nc3ccccc3c3nc(CCc4c(C)n[nH]c4C)nn23)c1` as the molecule, how does the “activity change, negative = inhibition” value read?
A: The value was inactive: -9.52%.

Q: For `COc1ccc(Nc2nc3ccccc3nc2NS(=O)(=O)c2ccc(Cl)cc2)cc1OC`, which “activity change, negative = inhibition” value is on record?
A: Its value is inactive: -1.54%.

Q: For `CCOC(=O)c1cccc(NC(=O)CSc2nc3cc4ccccc4cc3[nH]2)c1`, which “activity change, negative = inhibition” value is on record?
A: The value was inactive: -8.74%.

Q: Which “activity change, negative = inhibition” value does the source give for `CC(C)c1cnc2c(c1SCC(=O)O)c(=O)n(C)c(=O)n2C` here?
A: The value was inactive: -0.311%.

Q: For `COc1ccccc1-c1cc(C(=O)NCCc2ccccc2)no1`, which “activity change, negative = inhibition” value is on record?
A: Its value is inactive: -17.6%.

Q: For `CCC(C(=O)NCc1cccc(Br)c1)n1nc(C)c2c(C)n(-c3ccccc3)nc2c1=O` (stereo not drawn), which “activity change, negative = inhibition” value is on record?
A: The value was inactive: -13.1%.

Q: With `CC(=O)Nc1ccc(NC(=O)c2cnn(-c3ccccc3)c2C2CCN(C(=O)OC(C)(C)C)CC2)cc1` as the molecule, how does the “activity change, negative = inhibition” value read?
A: Its value is inactive: -3.65%.

Q: With `O=S(=O)(Nc1cccc(F)c1)c1ccc2[nH]c3c(c2c1)CCCCC3` as the molecule, how does the “activity change, negative = inhibition” value read?
A: The value was inactive: 0.297%.

Q: Which “activity change, negative = inhibition” value does the source give for `COc1cc(OC)cc(C(=O)Nc2ccc3c(c2)OCCO3)c1` here?
A: Its value is inactive: 4.88%.

Q: For `O=C(CNC(=O)c1ccccc1F)OCc1cc(=O)n2nc(C3CC3)sc2n1`, which “activity change, negative = inhibition” value is on record?
A: Its value is inactive: -9.74%.

Q: Which “activity change, negative = inhibition” value does the source give for `CCOc1ccccc1Nc1nnc(-c2cc3cc(Cl)ccc3oc2=O)s1` here?
A: Its value is inactive: -0.0855%.

Q: For `CC(NC(=O)c1cc2ccccc2o1)c1ccccc1` (stereo not drawn), which “activity change, negative = inhibition” value is on record?
A: Its value is inactive: -16.2%.

Q: With `CCC(=O)N1CCc2cc(CNC(=O)c3ccc(C#N)cc3)ccc21` as the molecule, how does the “activity change, negative = inhibition” value read?
A: Its value is inactive: -1.73%.

Q: Which “activity change, negative = inhibition” value does the source give for `CCOc1ccc(NC(=O)CSC2=Nc3ccccc3C3=NC(Cc4ccccc4)C(=O)N23)cc1` (stereo not drawn) here?
A: The value was inactive: 1.59%.

Q: Which “activity change, negative = inhibition” value does the source give for `CCOC(=O)c1c(C)[nH]c(C)c1S(=O)(=O)N1CCCC(C(=O)Nc2cccc(C)n2)C1` (stereo not drawn) here?
A: The value was inactive: 0.43%.

Q: For `CCCn1nc(NC(=O)c2cccc(Cl)c2)c2cc3cccc(C)c3nc21`, which “activity change, negative = inhibition” value is on record?
A: The value was inactive: 5.75%.

Q: Which “activity change, negative = inhibition” value does the source give for `COc1ccc(-c2nc3sc(CCNC(=O)C(=O)Nc4ccc(C)c(F)c4)c(C)n3n2)cc1` here?
A: The value was inactive: 0.137%.

Q: With `COc1ccccc1CN1CCN(C2CCN(C(=O)Nc3ccccc3)CC2)C(=O)C1=O` as the molecule, how does the “activity change, negative = inhibition” value read?
A: Its value is inactive: 0%.

Q: With `Cc1ccc(NC(=O)Cn2c(-c3nonc3N)nc3ccccc32)cc1C` as the molecule, how does the “activity change, negative = inhibition” value read?
A: Its value is inactive: -1.35%.

Q: For `CCc1ccc(S(=O)(=O)c2cn(C)c3cc(F)c(F)cc3c2=O)cc1`, which “activity change, negative = inhibition” value is on record?
A: Its value is inactive: 3.46%.

Q: Which “activity change, negative = inhibition” value does the source give for `CC(Nc1ccc(-c2nc(-c3ccco3)no2)cc1[N+](=O)[O-])c1ccccc1` (stereo not drawn) here?
A: The value was inactive: 5.65%.

Q: With `CCS(=O)(=O)c1oc(-c2ccc(F)cc2)nc1S(=O)(=O)c1ccc(Br)cc1` as the molecule, how does the Potency read?
A: The Potency was active: 2.61 µM.

Q: Which “activity change, negative = inhibition” value does the source give for `Cc1ccccc1NC(=O)CCNC(=O)Cn1ccc2ccccc2c1=O` here?
A: The value was inactive: 0.852%.

Q: Which “activity change, negative = inhibition” value does the source give for `CC(C)(C)C(=O)Nc1cccc(C(=O)OCc2cc(=O)n3nc(C4CC4)sc3n2)c1` here?
A: Its value is inactive: 4.17%.

Q: Which “activity change, negative = inhibition” value does the source give for `COc1cc(NC(=O)c2cc3ccc4cccnc4c3[nH]2)cc(OC)c1OC` here?
A: The value was inactive: 9.8%.

Q: Which “activity change, negative = inhibition” value does the source give for `COc1ccccc1N1CCN(S(=O)(=O)CCNC(=O)C2CC(=O)N(c3ccccc3)C2)CC1` (stereo not drawn) here?
A: The value was inactive: 0.184%.

Q: For `CCOC(=O)c1ccc(NC(=O)CC2C(=O)N(c3ccc(C)cc3)C(=O)N2C2CCCC2)cc1` (stereo not drawn), which “activity change, negative = inhibition” value is on record?
A: Its value is inactive: -5.92%.

Q: With `CCOC(=O)c1ccc(NC(=O)CSc2nc(-c3cccs3)cc(C(F)(F)F)c2C#N)cc1` as the molecule, how does the “activity change, negative = inhibition” value read?
A: The value was inactive: -11.8%.

Q: Which “activity change, negative = inhibition” value does the source give for `COC(=O)CN1C(=O)CSc2ccc(S(=O)(=O)Nc3c(C)cc(C)cc3C)cc21` here?
A: Its value is inactive: -8.43%.

Q: With `CCOC(=O)N1CCc2c(sc(NCc3sccc3C)c2C(=O)Nc2cc(Cl)ccc2OC)C1` as the molecule, how does the “activity change, negative = inhibition” value read?
A: Its value is inactive: 2.05%.

Q: Which “activity change, negative = inhibition” value does the source give for `CCS(=O)(=O)c1nc(S(=O)(=O)c2ccc(C)cc2)c(NCC(C)C)s1` here?
A: The value was inactive: -0.0853%.

Q: With `CC(=O)C1=C(c2ccc(Cl)c(Cl)c2)N(C(C)=O)n2cnnc2S1` as the molecule, how does the Potency read?
A: Its Potency is active: 14.7 µM.

Q: With `O=C1CN(C(=O)COc2ccc(Cl)cc2)C(c2ccc(F)cc2)c2cc(Br)ccc2N1` (stereo not drawn) as the molecule, how does the “activity change, negative = inhibition” value read?
A: Its value is inactive: -30.7%.

Q: For `Cc1ccc(NC(=O)N2CCN(Cc3nc4ccc(C)cc4o3)CC2)c(Cl)c1`, which “activity change, negative = inhibition” value is on record?
A: Its value is inactive: 0%.

Q: For `Cc1cc(C)n(-c2nc(C)c(C)c(=O)n2CC(=O)Nc2ccc(Cl)c(Cl)c2)n1`, which “activity change, negative = inhibition” value is on record?
A: The value was inactive: -3.12%.

Q: With `COc1ccc(-c2nnc(SCC(=O)Nc3cccc(Cl)c3C)nc2-c2ccc(OC)cc2)cc1` as the molecule, how does the “activity change, negative = inhibition” value read?
A: The value was inactive: 9.4%.

Q: For `COc1ccc(-c2cc(OC(=O)c3cccc(C)c3)c3c(C)oc(C)c3c(=O)c2)cc1`, which “activity change, negative = inhibition” value is on record?
A: The value was inactive: 4.34%.

Q: For `Cc1cc(C)c(NC(=O)Cn2nnc(C(=O)Nc3ccc(F)cc3F)c2N)c(C)c1`, which “activity change, negative = inhibition” value is on record?
A: The value was inactive: 4.87%.

Q: For `CC(=O)Nc1ccc(NC(=O)c2c(C)nn(-c3ccccc3)c2-n2cccc2)cc1`, which “activity change, negative = inhibition” value is on record?
A: The value was inactive: -2.23%.

Q: With `Cc1ccc(CNc2ncnc3c2cnn3-c2ccc(C)cc2C)cc1` as the molecule, how does the “activity change, negative = inhibition” value read?
A: The value was inactive: -2.06%.

Q: Which “activity change, negative = inhibition” value does the source give for `Cc1ccc(CNC(=O)c2ccc3c(c2)nc2n3CCCC2)cc1` here?
A: The value was inactive: 2.31%.

Q: For `COc1cccc(NC(=O)c2nnn(Cc3ccc(OC)c(Br)c3)c2N)c1`, which “activity change, negative = inhibition” value is on record?
A: Its value is inactive: -7.81%.

Q: Which “activity change, negative = inhibition” value does the source give for `CCc1nn2c(=O)cc(COC(=O)C3CCCCC3)nc2s1` here?
A: Its value is inactive: -0.553%.

Q: Which “activity change, negative = inhibition” value does the source give for `CCn1cc(C(=O)NCc2ccccc2OC)c(=O)c2cc(S(=O)(=O)N3CCCCCC3)ccc21` here?
A: Its value is inactive: 0.614%.

Q: For `CCOC(=O)c1cc(-c2ccccc2)n(CCCC(=O)Nc2ccc(C)cc2Cl)c1C`, which “activity change, negative = inhibition” value is on record?
A: The value was inactive: -4.53%.

Source: PubChem BioAssay AID493208 (National Center for Advancing Translational Sciences (NCATS), 2011)
